The full ranking holds about 110,000 compounds; the median of “z-score” is about -0.1, and the highest 2% start at about 2. The list shows a part of the results. Active and inactive are the calls of the source.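 Rule for the calls: active = z-score in the third read window above 3 or below -3; inactive = the rest.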

The record followed here is PubChem BioAssay AID488969 (Vanderbilt High Throughput Screening Facility, 2010).

This test has as its target Metabotropic glutamate receptor 8 (Rattus norvegicus) (UniProt P70579). Description: rat mGluR8 modulators via GIRK flux, primary screen, cell-based, thallium flux, HTS (AID 488969). The note with it: HEK293 rat mGluR8, GIRK (G protein-gated inwardly rectifying potassium channel) thallium flux, FluoZin2; at 10 µM; stronger effect = higher value; submaximal glutamate (EC20) added with thallium.
Chain of UniProt P70579 (P70579 whole entry, looked up): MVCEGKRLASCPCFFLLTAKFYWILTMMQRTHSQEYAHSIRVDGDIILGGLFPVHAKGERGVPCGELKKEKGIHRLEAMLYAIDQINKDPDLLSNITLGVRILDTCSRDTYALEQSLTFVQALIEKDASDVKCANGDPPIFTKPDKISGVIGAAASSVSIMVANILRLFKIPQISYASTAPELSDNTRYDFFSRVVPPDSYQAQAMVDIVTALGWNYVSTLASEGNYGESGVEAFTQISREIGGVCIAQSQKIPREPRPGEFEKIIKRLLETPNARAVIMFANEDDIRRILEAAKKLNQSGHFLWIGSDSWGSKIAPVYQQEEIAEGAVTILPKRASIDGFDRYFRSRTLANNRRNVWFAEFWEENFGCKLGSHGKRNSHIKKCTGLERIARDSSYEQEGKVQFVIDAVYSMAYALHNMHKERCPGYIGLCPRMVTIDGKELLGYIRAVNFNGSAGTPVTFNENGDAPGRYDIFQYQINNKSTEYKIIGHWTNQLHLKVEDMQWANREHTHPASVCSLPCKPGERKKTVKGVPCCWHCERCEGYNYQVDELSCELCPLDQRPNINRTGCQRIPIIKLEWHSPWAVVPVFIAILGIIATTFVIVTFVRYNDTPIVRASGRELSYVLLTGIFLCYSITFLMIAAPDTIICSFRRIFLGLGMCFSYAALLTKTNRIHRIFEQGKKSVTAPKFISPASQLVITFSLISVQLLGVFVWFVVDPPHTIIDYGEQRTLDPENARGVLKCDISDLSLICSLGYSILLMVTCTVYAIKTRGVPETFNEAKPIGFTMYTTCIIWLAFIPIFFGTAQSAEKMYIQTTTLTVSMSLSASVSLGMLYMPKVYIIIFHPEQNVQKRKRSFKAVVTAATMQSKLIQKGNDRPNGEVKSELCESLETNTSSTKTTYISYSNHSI
As for `CC(=O)Nc1cccc(Oc2ncnc3scc(-c4ccccc4)c23)c1`, the z-score is -0.355.

`CN1CCc2c(sc3ncn4nc(-c5ccccc5O)nc4c23)C1` yielded a z-score of -0.798.

Molecule `CCC(C)NS(=O)(=O)c1ccc(OC)c(Cl)c1Cl` (configuration not stated) had a z-score of -0.769.

On to `O=C(Nc1ccc2nn(-c3ccccc3)nc2c1)c1ccc2c(c1)OCO2`, for which the z-score worked out at 1.29.

With `CN(CC(=O)O)Cc1nc2ccccc2[nH]1`, the z-score was -0.0882.

Regarding `CN1CCc2nc3ccc(Cl)cc3c(-c3ccccc3Cl)c2C1`, the z-score is -0.219.

`Cc1occc1C(=O)Nc1cccc(C(F)(F)F)c1` registered a z-score of -1.96.

In turn, `NC1=NC(=Nc2ccc(Br)cc2)c2ccccc21` came in with a z-score of -0.399.

`O=c1oc(-c2cc3ccccc3o2)nc2sc3c(c12)CCCC3` came in with a z-score of -0.0681.

Turning to `O=P(O)(O)c1ccccc1OCCCCCOc1ccccc1P(=O)(O)O`, the z-score is -0.265.

In turn, `CCn1c2ccccc2c2nnc(SCC(N)=O)nc21` showed a z-score of 0.168.

In the case of `COc1ccc(N=Nc2nc3cc(Br)c(Br)cc3n2C)c(OC)c1`, the z-score was -0.125.

`COc1ccc(N2Cc3ccccc3C2=NC(=O)c2cccc([N+](=O)[O-])c2)cc1` yielded a z-score of -1.56.

`O=C(Cn1ncc(Cl)c(Cl)c1=O)NCC1CCCCC1` came in with a z-score of 0.189.

As for `O=C(NC1=NCCS1)C1COc2ccccc2O1` (configuration not stated), the z-score turned out to be 0.94.

`O=S(=O)(c1ccc(F)cc1)n1ccc(-c2cnc(-c3ccccc3)s2)n1` yielded a z-score of -0.172.

`CCOCC(=O)Nc1cc(C(F)(F)F)ccc1Oc1cccc(Br)c1`: the z-score was -0.288.

As for `N#Cc1c(C(F)(F)F)cc(-c2ccc(Cl)c(Cl)c2)nc1SCCN1CCOCC1`, the z-score turned out to be 0.851.

`O=C(COc1ccccc1)NNc1c2ccccc2nc2ccccc12`: the z-score is -0.159.

Turning to `Cc1ccc(C)c(N=C2CCCN2Cc2ccccc2)c1C#N`, the z-score was active: -3.64.

`COc1cc2c(cc1OC)C1=C(C#N)CC/C(=N\S(=O)(=O)c3ccccc3)N1CC2`: the z-score is 0.0414.

For `CC(C)CN(CC(C)C)C(=O)C12CCC(C)(C(=O)C1)C2(C)C` (configuration not stated), the z-score was -0.226.

For `O=C(Nc1ccc(N2CCCC2)cc1)c1cccc(F)c1`, the z-score came out at 0.0251.

For `COCc1nnc(NC(=O)c2ccc(S(=O)(=O)N(C)c3ccccc3)cc2)o1`, the z-score came to 0.784.

The molecule `Cc1occc1C(=O)Nc1ccccc1C(=O)O` showed a z-score of -0.185.

The molecule `O=S(=O)(c1ccc(Cl)cc1)N1CCCC1c1nc2ccccc2s1` (configuration not stated) yielded a z-score of 0.0454.

On to `CC(C)[C@H](NC(=O)CCn1nnc2ccccc2c1=O)C(=O)O`, for which the z-score was 1.37.

`O=C(Nc1nccs1)C1C2CC3OC(=O)C1C3C2` (configuration not stated) showed a z-score of -0.0742.

In the case of `CC1(C)CC(=O)C(C(=O)Cc2ccccc2[N+](=O)[O-])C(=O)C1`, the z-score was determined as 0.541.

`Cc1ccc(CN2CC(C(=O)Nc3cccc(S(=O)(=O)N4CCCCC4)c3)CC2=O)cc1` (configuration not stated) returned a z-score of -0.00131.

Regarding `S=C(NCc1ccco1)N1CCN(C(c2ccccc2)c2ccccc2)CC1`, the z-score was -0.178.

The molecule `O=C(CN1CCN(Cc2ccc(F)cc2Cl)C1=O)NCCCN1CCOCC1` returned a z-score of 0.204.

Take `CC(Sc1ccc(Cl)cc1)C(=O)NCc1ccc2c(c1)OCO2` (configuration not stated): the z-score was 0.0378.

Take `O=C(Nc1ccccc1C(=O)O)c1cncc(Br)c1`: the z-score was -0.638.

The molecule `CC(Cl)C(=O)NC(=O)NC12CC3CC(CC(C3)C1)C2` (configuration not stated) registered a z-score of -0.274.

`Cc1nn(CC(=O)O)c(C)c1C`: the z-score came to 0.21.

On to `Fc1ccc(COc2ccccc2CNCc2ccncc2)cc1`, for which the z-score was -0.0876.

Molecule `O=C(O)Cn1nc(C(F)(F)F)c2c1CCC2` returned a z-score of 0.0388.

For `CCCCCn1c(CCNC(=O)CCC)nc2ccccc21`, the z-score was -0.563.

`CC1=NN(c2ccccc2)C(=O)C1c1ccccc1` (configuration not stated) came in with a z-score of -0.183.

As for `CC(C)Sc1nc(N2CCOCC2)c2c3c(sc2n1)COC(C)(C)C3`, the z-score is -0.0382.

In turn, `C=CCn1c(SCc2c(Cl)cccc2Cl)nnc1-c1cccnc1` had a z-score of -0.0853.

`CN(Cc1cc2ccccc2[nH]c1=O)S(=O)(=O)c1ccccc1`: the z-score was -0.137.

Consider `O=C(NCCCN1CCOCC1)c1ccccc1`, for which the z-score turned out to be 0.0111.

Consider `COc1ccc(OC)c(C2C(C(=O)c3cc4ccccc4o3)=C(O)C(=O)N2c2cc(C)on2)c1` (configuration not stated), for which the z-score was active: -4.54.

For `CCC(c1nnc(SCC(=O)Nc2cc(Cl)ccc2C#N)n1C1CCCCC1)N(C)C` (configuration not stated), the z-score amounted to 0.00636.

As to `c1ccc(Oc2cccc(OCCn3cncn3)c2)cc1`, the z-score was -0.00817.

As for `Cc1cccc(C(=O)Nc2ccccc2N2CCN(c3ccc(F)cc3)CC2)c1`, the z-score was determined as 0.0619.

`Fc1ccc(/C=N/c2c(-c3ccc(F)cc3)nc3n2CCS3)cc1` displayed a z-score of -0.335.

As for `O=C(CCS(=O)(=O)c1ccc(Br)s1)NCc1cccs1`, the z-score was determined as 1.21.

In the case of `Cc1cc(C)cc(N2CC(C(=O)O)CC2=O)c1` (configuration not stated), the z-score is -0.377.

Take `CC(C)(C)NC(=O)Cn1c(=O)oc2cc(S(=O)(=O)N3CCc4ccccc43)ccc21`: the z-score was -0.202.

For `Cc1cccc(OP(=O)(Nc2c(C)n(C)n(-c3ccccc3)c2=O)Oc2cccc(C)c2)c1`, the z-score was -0.0461.

The molecule `Cc1cc(C)cc(NS(=O)(=O)c2ccc(NC(=O)C3CCCCC3C(=O)O)cc2)c1` (configuration not stated) registered a z-score of 0.055.

On to `O=C(N/N=C/C1C(c2ccccc2)C1(Cl)Cl)c1cccc(Cl)c1` (configuration not stated), for which the z-score was determined as 0.273.

`C/C(N)=C(/C#N)C(=O)CSc1nnc(-c2ccc(OC(F)F)cc2)o1` registered a z-score of -0.443.

For the molecule `O=C(NCC1CCCO1)c1cnn2c1NC(c1ccccc1)CC2C(F)(F)F` (configuration not stated), the z-score is -0.121.

`CSCCC1C(=O)OC2(C)CC(C)(C)NC(=S)N12` (configuration not stated) yielded a z-score of 0.49.

`CC(C)(C)c1csc(SCC(=O)Nc2ccc(Cl)cn2)n1` gave a z-score of -0.244.

Take `CN1/C(=C/C=C(/C#N)C(N)=O)C(C)(C)c2ccccc21`: the z-score was -0.198.

As to `Cc1ccnc(SCCn2c(N3CC(C)CC(C)C3)nc3c2c(=O)n(C)c(=O)n3C)n1` (configuration not stated), the z-score was 0.0782.

As to `Cc1nc2c(-c3ccc(F)cc3)c(C)nn2c(C)c1CCC(=O)N1CCN(c2ccccn2)CC1`, the z-score was -0.51.

Regarding `COc1ccccc1NC1=C(Cl)C(=O)N(C2CCCCC2)C1=O`, the z-score was -0.186.

`Cn1cc(C(=O)c2ccc(Cl)cc2Cl)cc1C(=O)O` had a z-score of -0.33.

Turning to `C=C(C)CC(NCc1ccco1)c1ccc(OC)cc1` (configuration not stated), the z-score is 0.143.

Molecule `Cc1ccc(N2CCN(C3=NC(=O)/C(=C\c4cn[nH]c4-c4ccccc4)S3)CC2)cc1` had a z-score of -2.16.

`COc1ccc(OCC(=O)OCCN(C)C)cc1` gave a z-score of -0.208.

In turn, `CC(=O)NC(Cc1ccccc1)C(=O)NC1CCN(C(=O)c2ccc([N+](=O)[O-])cc2)CC1` (configuration not stated) came in with a z-score of -0.0531.

`COc1ccc(CCNC(=O)C(=O)Nc2nccs2)cc1OC` had a z-score of -0.272.

Consider `CCOC(=O)c1ccc(NC(=O)COc2ccc(S(=O)(=O)N3CCCC3)cc2)cc1`, for which the z-score was -0.501.

In the case of `Cc1cc(C)nc(NS(=O)(=O)c2ccc(NC(=S)NC(=O)C3CCCC3)cc2)n1`, the z-score was -0.797.

On to `Cc1ccc(S(=O)(=O)NCCCCCC(=O)Nc2nccs2)cc1`, for which the z-score is -0.569.

The molecule `COc1cc2[nH]c(=O)n(Cc3ccc(C(=O)NCC4CCCO4)cc3)c(=O)c2cc1OC` (configuration not stated) had a z-score of -0.461.

As to `CC(C)C1NC2(C(=O)c3ccccc3C2=O)C2C(=O)N(c3ccc(F)cc3)C(=O)C12` (configuration not stated), the z-score was determined as 1.24.

As for `COc1ccc(NC(=O)COC(=O)c2c(C)noc2C)c(OC)c1`, the z-score was 0.0913.

`N#C/C(=C\c1ccc([N+](=O)[O-])cc1)c1nc(C2CC2)cs1`: the z-score is -0.465.

`COc1ccc(/C=C2\SC(=N)N(c3nccs3)C2=O)cc1OC` yielded a z-score of 1.79.

Turning to `Cc1ccc(CN(C)C(=O)C2CCCN2C(=O)c2cccs2)o1` (configuration not stated), the z-score was 0.944.

For `COc1c(Br)cc(Br)cc1/C=N/n1c(C)nnc1C`, the z-score amounted to 1.26.

`COc1ccc(NC(=O)CSc2nc(-c3ccc(C)cc3)cc(C(F)(F)F)c2C#N)cc1` registered a z-score of -0.0722.

`CCNc1nc(Oc2ccc(=O)[nH]n2)nc(N2CCOCC2)n1`: the z-score was -0.182.

Regarding `CC(=O)Nc1nc(C)c(C(C)=O)s1`, the z-score is -0.785.

In the case of `CCOC(=O)c1c(C)n(C)c2ccc(OCC(O)CN3CCC(C)CC3)cc12` (configuration not stated), the z-score stood at 0.622.

The molecule `CNC(=O)Nc1cccc(C(F)(F)F)c1` yielded a z-score of 0.321.

In turn, `CC(C)n1nc(C(=O)Oc2ccc(Cl)cc2)c2ccccc2c1=O` gave a z-score of -0.75.

`COc1cc(C(=O)NC(=S)Nc2ccc3oc(=O)ccc3c2)cc(OC)c1OC` had a z-score of -0.0903.

In turn, `O=C(CN1CCOc2ccccc21)NC1CC1` gave a z-score of 0.154.

`Cc1nc2ccc(NC(=S)N3CCN(c4ccccn4)CC3)cc2nc1C`: the z-score was determined as 0.124.

`CN(c1cccc(NS(=O)(=O)c2cccs2)c1)S(C)(=O)=O`: the z-score is -0.251.

`Cc1ccccc1C1=NC(C(F)(F)F)(C(F)(F)F)c2c(n(C)c(=O)n(C)c2=O)N1` had a z-score of -0.116.

As for `Cc1ccc(C)c(NC2=NS(=O)(=O)c3ccccc32)c1`, the z-score was -0.652.

For the molecule `Cc1cc(C)n2nc(-c3cnn(C)c3C(F)(F)F)c(Cl)c2n1`, the z-score was -0.113.

Consider `CN(C)S(=O)(=O)Oc1cccc(C(=O)Nc2ccc(Cl)cc2)c1`, for which the z-score was -0.779.

`CCOC(=O)c1cc(C#N)c(Oc2ccccc2OC)nc1-c1ccccc1` gave a z-score of -0.0696.

In the case of `COCCn1c(C)cc(C(=O)COC(=O)c2ccc[nH]c2=O)c1C`, the z-score was -0.085.

As for `Cc1ccc2c(n1)CC(C)(C)C/C2=N\O`, the z-score was -0.486.

On to `CCOC(=O)Cc1csc(NC(=O)COc2ccc3ccccc3c2)n1`, for which the z-score was -0.371.

Molecule `N#Cc1ccccc1NC(=O)CC1CCCCC1` came in with a z-score of -0.0885.

As for `CN(CC(=O)NC1CCCc2ccccc21)S(=O)(=O)c1ccc2c(c1)c(=O)n(C)c(=O)n2C` (configuration not stated), the z-score amounted to 0.00391.

Turning to `COc1cc(C=O)c(Br)cc1OCc1ccc(C)cc1`, the z-score is -0.101.

With `O=C(CSc1ccccn1)Nc1ccc(Br)cn1`, the z-score was -0.593.

`COC(=O)c1ccc(NC(=O)CSc2nc3ccccc3c(=O)[nH]2)cc1` had a z-score of -0.00634.

As to `O=C(Cc1cccs1)N1CCC(c2nc3c(nnn3Cc3ccccc3)c(=O)[nH]2)CC1`, the z-score is -0.11.

Turning to `Clc1ccccc1-c1nnn(Cc2ccc(-c3nn[nH]n3)cc2)n1`, the z-score is -0.648.

On to `COCCCNC(=O)CCc1nc2cccnc2n1Cc1ccccc1`, for which the z-score was -0.252.

Molecule `Fc1cccc(CSc2ccc(-c3ccc4c(c3)OCO4)nn2)c1` came in with a z-score of -0.151.

As to `Cc1cc(C)cc(C(=O)Nc2nnc(SCC(=O)N3CCCc4ccccc43)s2)c1`, the z-score was -0.235.

On to `Cc1ccc(CSCC(=O)N/N=C/c2ccc(OCC(=O)Nc3ccc(C)cc3)cc2)cc1`, for which the z-score was -0.0937.

Molecule `O=C(NC1CCN(C(=S)NCc2ccco2)CC1)C1CCCCC1` returned a z-score of -0.0774.

Regarding `Cc1ccc(CNC(=O)CSc2nc3ccsc3c(=O)n2NC(=O)c2ccccc2)cc1`, the z-score stood at 0.353.

Molecule `CC(C)CNc1nc(Oc2ccc(=O)[nH]n2)nc(N(C)C)n1` showed a z-score of 0.022.

As for `O=C(Cc1ccccc1)Nc1nc(=O)c2ccccc2s1`, the z-score is active: 5.11.
